Results: PubChem BioAssay AID1745853 (National Center for Advancing Translational Sciences (NCATS), 2022)
The list shows a part of the results. Shown are side measurements of this screen, not its main read-out; they come without a call.

Experiments:
Experiment in all cases: Primary Screen for Target Class Profiling of Small Molecule Inhibitors of Methyltransferases
[1] = target: Glycine N-methyltransferase (Homo sapiens) (UniProt Q14749); details: purified enzyme, MTase-Glo SAH luminescence; measured here: GNMT inhibition; at 40 µM; stronger effect = lower value
In short: (§1)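 Each enzyme was assayed with SAM and its substrate. SAH formation detected by MTase-Glo luminescence; single-point 40 uM screen[…].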

[2] = target: Guanidinoacetate N-methyltransferase (Homo sapiens) (UniProt Q14353); details: purified enzyme, MTase-Glo SAH luminescence; measured here: GAMT inhibition; at 40 µM; stronger effect = lower value
In short: as §1

[3] = target: Histamine N-methyltransferase (Homo sapiens) (UniProt P50135); details: purified enzyme, MTase-Glo SAH luminescence; measured here: HNMT inhibition; at 40 µM; stronger effect = lower value
In short: as §1

[4] = target: Nicotinamide N-methyltransferase (Homo sapiens) (UniProt P40261); details: purified enzyme, MTase-Glo SAH luminescence; measured here: NNMT inhibition; at 40 µM; stronger effect = lower value
In short: as §1

[5] = target: Phenylethanolamine N-methyltransferase (Homo sapiens) (UniProt P11086); details: purified enzyme, MTase-Glo SAH luminescence; measured here: PNMT inhibition; at 40 µM; stronger effect = lower value
In short: as §1
% is scaled to controls: 0 for no effect and ±100 for the full control effect.

Structure (SMILES)	activity change, negative = inhibition [1] [%]	activity change, negative = inhibition [2] [%]	activity change, negative = inhibition [3] [%]	activity change, negative = inhibition [4] [%]	activity change, negative = inhibition [5] [%]
CN(Cc1ccccc1C(F)(F)F)C(=O)Nc1ccccc1	-3.51	-2.14	-2.21	-3.41	-4.36
COc1cccc(CN2C(=O)c3nc4ccccc4n3CC2(C)C(=O)NCc2ccccc2)c1OC (configuration not stated)	3.6	0.751	8.53	8.66	3.63
CC1CCCC(NC(=O)C2(C)Cn3c(cc4sccc43)C(=O)N2Cc2ccc3c(c2)OCO3)C1C (configuration not stated)	-5.25	6.9	-1.59	-7.38	-0.414
O=C(CCc1nnc2n(Cc3ccc(Cl)cc3)c(=O)c3ccccc3n12)NCCN1CCOCC1	-16.2	1.82	-0.588	-4.6	1.72
COc1ccccc1CNC(=O)CCc1nnc2n(Cc3ccccc3)c(=O)c3ccccc3n12	-2.71	4.49	4.59	-3.56	2.28
CC1(c2nc3c(C(N)=O)cccc3[nH]2)CCCN1 (configuration not stated)	-2.54	–	7.33	–	–
CCOc1ccccc1CN1C(=O)c2ccc(-c3ccco3)n2CC1(C)C(=O)NC1CCC(C)CC1 (configuration not stated)	-7.3	4.42	-2.94	-24.3	-2.27
COc1ccc(OC)c(-c2nc3cc4c(cc3cc2CN2CCCOCC2)OCO4)c1	-4.63	-1.16	0.597	-26.4	-6.79
O=c1c2ccccc2n2c(-c3ccc(O)cc3)nnc2n1Cc1ccc(F)cc1	-8.29	4.05	3.23	-13.9	-0.009
Cc1cccc(CN2C(=O)c3cc4ccccc4n3CC2(C)C(=O)NCCC(C)C)c1 (configuration not stated)	3.76	2.39	4.77	0.84	0.826
CC1=C[C@@H](CNS(C)(=O)=O)[C@H](C(C)C)C[C@H]1CC(=O)Nc1ccccn1	-11.3	-13.5	-4.88	-16.2	-13.3
CC(C)=CC/C=C(\C)[C@H]1CC[C@]2(C)[C@@H]1[C@H](O)C[C@@H]1[C@@]3(C)CC[C@H](O)C(C)(C)[C@@H]3[C@@H](O[C@@H]3O[C@H](CO)[C@@H](O)[C@H](O)[C@H]3O)C[C@]12C	0.177	7.64	-2.62	-9.54	-2.51
O=C(CCc1nnc2n(Cc3ccccc3)c(=O)c3ccccc3n12)NCc1ccc(F)cc1	-2.43	0	1.74	10.8	-0.853
CN(CC(=O)N1CCOCC1)S(=O)(=O)c1ccc2[nH]c3c(c2c1)CCCC3	8.1	4.63	12.5	6.34	8.38
CN(CCNc1nc(CCN)nc2ccccc12)S(C)(=O)=O	-10.1	-12.3	-8.48	-16.6	-12.2
CCCn1c(=O)c2ccc(C(=O)NC(C)CC)cc2n2c(=O)n(CC(=O)NCc3ccc(C)cc3)nc12 (configuration not stated)	2.08	1.95	6.73	-1.45	-0.619
